Measurements from PubChem BioAssay AID2147 (National Center for Advancing Translational Sciences (NCATS), 2009).
Where “and” joins values, the source holds several entries; their conditions need not be identical. Identical values can stand only once. Out of some 230,000 compounds screened, about 3,600 (1.6%) were called active. This list was built around the results that the source calls inconclusive (neither active nor inactive); the mix of calls is not that of the screen. Calls come from the whole dose curve; as a rule, active = well fitted inhibition curve with a large enough effect (not every such curve was filed as active); inconclusive = small, poorly fitted or top-dose-only effect, or another doubt; inactive = no such curve, though single readings can be large or run the other way. Potencies of inconclusive entries are doubtful fits and often do not repeat.
Note: nearly all actives have a fitted effect of over 50% in size.
Potency is the fitted concentration of half-maximal effect; tags give direction and shape of the fitted curve.

The compounds below were run against Lysine-specific demethylase 4E (Homo sapiens) (UniProt B2RXH2) (assay: qHTS Assay for Inhibitors of Human Jumonji Domain Containing 2E (JMJD2E)). Conditions: JMJD2E catalytic domain, FDH-coupled NADH fluorescence (FDH is formaldehyde dehydrogenase); series mostly up to 57.1 µM.
UniProt B2RXH2, sequence (B2RXH2 whole entry, looked up, the tested form may be a part): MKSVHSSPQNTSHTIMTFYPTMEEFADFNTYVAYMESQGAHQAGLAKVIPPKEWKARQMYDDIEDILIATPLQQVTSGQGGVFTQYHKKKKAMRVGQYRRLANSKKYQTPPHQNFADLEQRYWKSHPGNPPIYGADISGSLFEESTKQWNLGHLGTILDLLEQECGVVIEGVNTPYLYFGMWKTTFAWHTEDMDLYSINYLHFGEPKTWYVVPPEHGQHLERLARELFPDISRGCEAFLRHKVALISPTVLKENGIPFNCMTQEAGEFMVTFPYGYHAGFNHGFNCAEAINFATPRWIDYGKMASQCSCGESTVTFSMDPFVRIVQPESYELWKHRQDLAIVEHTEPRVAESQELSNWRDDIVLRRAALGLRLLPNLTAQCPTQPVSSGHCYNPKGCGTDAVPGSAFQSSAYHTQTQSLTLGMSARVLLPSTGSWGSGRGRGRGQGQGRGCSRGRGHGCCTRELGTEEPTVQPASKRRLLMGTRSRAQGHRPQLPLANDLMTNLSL
`O=c1[nH]ncn1-c1ccccc1C(F)(F)F` was tested, and the Potency was “inactive”. With `O=C(NCC(=O)N(Cc1cccs1)C(C(=O)NC1CCCCC1)c1ccncc1)c1ccco1` (stereo not given) the Potency was inconclusive: 39.8 µM [inhibitor, single point]. `O=c1cc(-c2ccccc2)[nH]c2nc3ccccc3n12` was tested, and the Potency was inconclusive: 14.1 µM [inhibitor, partial curve]. With `CC1=NN(c2nc3ccccc3[nH]2)C(=O)C1Cc1ccccc1` (stereo not given) the Potency was inconclusive: 28.2 µM [inhibitor, single point]. In the case of `CO[C@H]1OC[C@@]2(C)[C@@H]3C4=C(CN2C(=O)OC(C)(C)C)[C@H](C)[C@H](CO)[C@H](CO)[C@H]4CC[C@H]13`, the Potency is reported as inconclusive: 39.8 µM [inhibitor, partial curve]. With `CCOc1ccc(-n2nnc3c(=O)n(CC(=O)Nc4cc(C)on4)cnc32)cc1` the Potency was “inactive”. In the case of `COc1ccccc1C(OC(=O)c1cccs1)C(=O)NCc1ccco1` (stereo not given), the Potency is reported as “inactive”. In the case of `CCOc1cc(/C=N/NC(=O)c2ccc(-c3csc(Nc4ccc(C)cc4)n3)cc2)ccc1OCC(=O)O`, the Potency is reported as inconclusive: 25.1 µM [inhibitor, partial curve]. `O=c1c(-c2nc3ccccc3s2)cccn1Cc1ccc(Cl)c(Cl)c1` was tested, and the Potency was inconclusive: 22.4 µM [inhibitor, partial curve]. With `CC(=O)c1sc(NC(=O)COc2ccccc2)nc1C` the Potency was inconclusive: 31.6 µM [inhibitor, single point]. `CCC(=O)Nc1sc(C(=O)Nc2ccccc2)c(C)c1C(=O)OC` was tested, and the Potency was inconclusive: 31.6 µM [inhibitor, single point]. In the case of `CC1CCN(CCOCCOc2ccc(Br)cc2Cl)CC1`, the Potency is reported as inconclusive: 25.1 µM [inhibitor, single point]. In the case of `CCC(C)NC(=O)c1cc(OC)c(OC)c(OC)c1` (stereo not given), the Potency is reported as “inactive”. `COc1ccc(C2(O)CC3CCC(C2)N3c2cc(C)nc(-c3ccccc3)n2)cc1` (stereo not given) was tested, and the Potency was inconclusive: 31.6 µM [inhibitor, partial curve]. `O=S(=O)(c1cccc(-c2cn3cc(Cl)ccc3n2)c1)N1CCOCC1` was tested, and the Potency was inconclusive: 22.4 µM [inhibitor, partial curve]. For `COn1cnnc1-c1ccccc1`, the Potency was “inactive”. In the case of `O=C(OCC(=O)N1CCN(C(=O)c2ccco2)CC1)c1cc(-c2ccco2)nc2ccccc12`, the Potency is reported as inconclusive: 25.1 µM [inhibitor, partial curve]. `c1ccc2nc(-c3ccc(N4CCOCC4)cc3)ccc2c1` was tested, and the Potency was inconclusive: 1.41 µM [inhibitor, full curve, poor fit]. With `CCOC(=O)C1=C(C)N(C)C(=S)N(C)C1c1ccc(OC)cc1` (stereo not given) the Potency was “inactive”. In the case of `CCC(=O)n1nc(-c2ccccc2)nc1SCC(=O)Nc1ccc(C)cc1`, the Potency is reported as “inactive”. For `CC(=O)Nc1nonc1-c1nc2ccccc2n1CCC(C)C`, the Potency was inconclusive: 11.2 µM [inhibitor, partial curve]. In the case of `c1ccc2c(-n3ccnc3)nc(-c3ccoc3)nc2c1`, the Potency is reported as inconclusive: 31.6 µM [inhibitor, single point]. For `Cc1cccc2nc(C(F)(F)F)nc(=O)n12`, the Potency was inconclusive: 39.8 µM [inhibitor, single point]. For `Cc1ccc(C(C(=O)Nc2ccc3c(c2)OCO3)N(C)C(=O)/C=C\c2ccc3c(c2)OCO3)cc1` (stereo not given), the Potency was inconclusive: 20 µM [inhibitor, partial curve]. `CCCN(CCC(=O)Nc1cc(OC)cc(OC)c1)CC1CC1` was tested, and the Potency was inconclusive: 25.1 µM [inhibitor, single point]. `CCOc1ccc(CCNC(=O)C2CCCN(S(=O)(=O)c3c(C)n[nH]c3C)C2)cc1OCC` (stereo not given) was tested, and the Potency was inconclusive: 31.6 µM [inhibitor, partial curve]. With `CC1(C)C2CC=C(/C=N/NC(=O)c3ccccc3O)C1C2` (stereo not given) the Potency was inconclusive: 35.5 µM [inhibitor, single point]. In the case of `COC(=O)CSc1nnc(NC(=O)/C=C\c2ccc3c(c2)OCO3)s1`, the Potency is reported as inconclusive: 1.12 µM [inhibitor, single point]. `CCOC(=O)N1CCN(C(=S)NC(=O)c2ccnn2C)CC1` was tested, and the Potency was “inactive”. In the case of `COc1cc(OC)c(C2N(c3ccc(Cl)c(Cl)c3)C(=O)C3CCCN32)cc1OC` (stereo not given), the Potency is reported as inconclusive: 28.2 µM [inhibitor, single point]. For `Cc1ccc(C)c(NC(=S)c2ccc3ccccc3n2)c1`, the Potency was “inactive”. In the case of `CCCCn1c2nc3ccccc3nc2c2c(=O)n(CCC)cnc21`, the Potency is reported as inconclusive: 8.91 µM [inhibitor, partial curve]. With `CCOc1ccc(-c2nc(CCl)cs2)cc1` the Potency was inconclusive: 35.5 µM [inhibitor, partial curve]. In the case of `COc1ccc(-c2nc(SCC(=O)Nc3nccs3)c(-c3ccc(Cl)cc3)[nH]2)cc1`, the Potency is reported as “inactive”. For `O=c1[nH]cnc2nn(-c3ccccc3)nc12`, the Potency was inconclusive: 31.6 µM [inhibitor, partial curve]. With `CC(=O)Oc1ccccc1C(=O)O` the Potency was inconclusive: 28.2 µM [inhibitor, partial curve] and inconclusive: 39.8 µM [inhibitor, single point]. With `C[n+]1ccccc1/C=N\O` the Potency was “inactive”. With `CC(Oc1ccc(Cl)cc1Cl)c1nc(-c2ccc(NC(=O)c3ccncc3)cc2)no1` (stereo not given) the Potency was “inactive”. For `CCOC(=O)c1nn(-c2ccc3c(c2)CCN3C(C)=O)cc1O`, the Potency was inconclusive: 31.6 µM [inhibitor, partial curve]. With `COc1cccc2[nH]c3c(N4CCC(C)CC4)ncnc3c12` the Potency was inconclusive: 10 µM [inhibitor, partial curve]. With `Cc1cc(C)n2nc3nc(N4CCCC4)nc(-c4ccccc4)c3c2n1` the Potency was inconclusive: 22.4 µM [inhibitor, partial curve]. With `CCN(CC)c1ccc(/C=N/NC(=O)CN2CCCc3ccccc32)cc1` the Potency was inconclusive: 31.6 µM [inhibitor, partial curve]. In the case of `O=C1OC2(CCCCC2)OC(=O)C1=CNc1ccc2c(c1)OCO2`, the Potency is reported as “inactive”. For `Cc1cccc(-c2nc(C#N)c(NCC3CCCO3)o2)c1` (stereo not given), the Potency was inconclusive: 28.2 µM [inhibitor, partial curve]. `COC(=O)c1ccc(C(=O)OC)c(NC(=O)CCC(=O)O)c1` was tested, and the Potency was inconclusive: 28.2 µM [inhibitor, partial curve]. With `CC(C)(C)c1nn(-c2ccccc2)c2[nH]c(=O)c(CNCc3ccc4c(c3)OCO4)cc12` the Potency was inconclusive: 25.1 µM [inhibitor, single point]. With `CCn1cnc2sc(C(=O)Nc3ccccc3OC)c(C)c2c1=O` the Potency was inconclusive: 39.8 µM [inhibitor, single point]. For `CCN(CC)S(=O)(=O)c1ccc(NC(=O)c2nc3nc(C)cc(C)n3n2)cc1`, the Potency was inconclusive: 35.5 µM [inhibitor, single point]. In the case of `CCCCNC(=O)CSc1nc(CCC)nc2ccccc12`, the Potency is reported as “inactive”. With `O=S(=O)(NCc1ccc(F)cc1)c1ccc2c(c1)OCCO2` the Potency was “inactive”. For `CCCCn1c(NC(C)=O)c(C#N)c2nc3ccccc3nc21`, the Potency was “inactive”. In the case of `CCOc1cc(S(=O)(=O)N(Cc2ccccc2)Cc2ccccc2)c(OCC)cc1-n1cnnn1`, the Potency is reported as inconclusive: 25.1 µM [inhibitor, partial curve]. With `Cc1cccc(CNc2nc(-c3ccoc3)nc3ccccc23)c1` the Potency was “inactive”. `O=C(Nc1ccc(NC(=O)c2cccs2)cc1)c1ccc2c(c1)OCCO2` was tested, and the Potency was inconclusive: 35.5 µM [inhibitor, single point]. In the case of `N#Cc1nc(-c2ccco2)oc1N1CCN(c2cccc(Cl)c2)CC1`, the Potency is reported as inconclusive: 35.5 µM [inhibitor, partial curve]. For `CCOC(=O)CNC(=O)c1cn(CC(C)C)c(=O)c2cc(OC)c(OC)cc12`, the Potency was inconclusive: 31.6 µM [inhibitor, partial curve]. In the case of `CC(=O)c1cccc(NC(=O)CC2Oc3ccc(C)cc3NC2=O)c1` (stereo not given), the Potency is reported as “inactive”. In the case of `CCN1CCN(CCNC(=O)c2ccc(/C=C3/Sc4ccccc4N(Cc4cccc(Cl)c4)C3=O)cc2)CC1`, the Potency is reported as inconclusive: 39.8 µM [inhibitor, single point]. With `Cc1n[nH]c(=S)n1/N=C/c1ccc(-c2ccccc2[N+](=O)[O-])o1` the Potency was “inactive”. `CCOC(=O)c1ccc(-c2c(C(=O)OCC)oc3cc(O)c(CC)cc3c2=O)o1` was tested, and the Potency was inconclusive: 35.5 µM [inhibitor, single point]. For `CCOC(=O)c1oc2ccc(CNC3CCCCC3)c(Cl)c2c1C`, the Potency was inconclusive: 25.1 µM [inhibitor, single point]. `N#Cc1nc(-c2ccccc2Cl)oc1N1CCOCC1` was tested, and the Potency was inconclusive: 28.2 µM [inhibitor, partial curve]. In the case of `S=C(NC1CCCCC1)N1CCN(c2ncccn2)CC1`, the Potency is reported as inconclusive: 39.8 µM [inhibitor, single point]. For `O=C(O)/C(=C/c1ccco1)NC(=O)c1ccccc1`, the Potency was “inactive”. In the case of `CC1CN(C(=O)c2ccc(COc3ccc(C(C)C)cc3)o2)CC(C)O1` (stereo not given), the Potency is reported as “inactive”. With `COc1ccc(OC)c2c(C)c(C)[nH]c12` the Potency was inconclusive: 28.2 µM [inhibitor, single point]. For `CCC(=O)N(Cc1cc2cc(OC)ccc2[nH]c1=O)c1cccc(C)c1`, the Potency was inconclusive: 35.5 µM [inhibitor, partial curve]. For `O=C(Nc1ccc(NC(=O)c2ccco2)nc1)c1ccccn1`, the Potency was inconclusive: 28.2 µM [inhibitor, single point]. With `CCOC(=O)c1c(-c2ccc(-c3ccccc3)cc2)csc1NC(=O)C1C2CCC(O2)C1C(=O)O` (stereo not given) the Potency was inconclusive: 39.8 µM [inhibitor, single point]. In the case of `CCn1nc(C)c(CNC(=O)CC2C(=O)NCCN2CC(C)C)c1C` (stereo not given), the Potency is reported as inconclusive: 22.4 µM [inhibitor, single point].
